Test results: PubChem BioAssay AID504332 (National Center for Advancing Translational Sciences (NCATS), 2011)
Among all 350,000 compounds or so, about 31,000 (8.9%) were called active. Inconclusive results, whose numbers are uncertain, are shown with a selection of clear calls. Calls follow the shape of the dose curve; as a rule, active = well fitted inhibition curve with a large enough effect; inconclusive = small, poorly fitted or top-dose-only effect; inactive = no such curve, though single readings can be large or run the other way. Potencies of inconclusive entries are doubtful fits and often do not repeat.

Molecular target: Histone-lysine N-methyltransferase EHMT2 (Homo sapiens) (UniProt Q96KQ7)
Assay: qHTS Assay for Inhibitors of Histone Lysine Methyltransferase G9a; also: nearly all actives have a fitted effect of over 75% in size
Settings: G9a H3K9 monomethylation, AlphaScreen, 2 h; activity, negative = inhibition: at 59 µM (top of the series) unless noted
Summary of the method: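 Readings reflect AlphaScreen signal from monomethyl-H3K9 antibody detection. HMT at 20 nM; substrate b-H3K9 500 nM; cofactor SAM 20 uM; 2 h RT reaction; compounds tested as titrations in qHTS with 15 min preincubation.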
% is scaled to controls: 0 for no effect and ±100 for the full control effect; potency is read from the fitted curve at half-maximal effect; tags tell the direction and shape of the fitted curve.

Sequence of UniProt Q96KQ7 (Q96KQ7 whole entry, looked up): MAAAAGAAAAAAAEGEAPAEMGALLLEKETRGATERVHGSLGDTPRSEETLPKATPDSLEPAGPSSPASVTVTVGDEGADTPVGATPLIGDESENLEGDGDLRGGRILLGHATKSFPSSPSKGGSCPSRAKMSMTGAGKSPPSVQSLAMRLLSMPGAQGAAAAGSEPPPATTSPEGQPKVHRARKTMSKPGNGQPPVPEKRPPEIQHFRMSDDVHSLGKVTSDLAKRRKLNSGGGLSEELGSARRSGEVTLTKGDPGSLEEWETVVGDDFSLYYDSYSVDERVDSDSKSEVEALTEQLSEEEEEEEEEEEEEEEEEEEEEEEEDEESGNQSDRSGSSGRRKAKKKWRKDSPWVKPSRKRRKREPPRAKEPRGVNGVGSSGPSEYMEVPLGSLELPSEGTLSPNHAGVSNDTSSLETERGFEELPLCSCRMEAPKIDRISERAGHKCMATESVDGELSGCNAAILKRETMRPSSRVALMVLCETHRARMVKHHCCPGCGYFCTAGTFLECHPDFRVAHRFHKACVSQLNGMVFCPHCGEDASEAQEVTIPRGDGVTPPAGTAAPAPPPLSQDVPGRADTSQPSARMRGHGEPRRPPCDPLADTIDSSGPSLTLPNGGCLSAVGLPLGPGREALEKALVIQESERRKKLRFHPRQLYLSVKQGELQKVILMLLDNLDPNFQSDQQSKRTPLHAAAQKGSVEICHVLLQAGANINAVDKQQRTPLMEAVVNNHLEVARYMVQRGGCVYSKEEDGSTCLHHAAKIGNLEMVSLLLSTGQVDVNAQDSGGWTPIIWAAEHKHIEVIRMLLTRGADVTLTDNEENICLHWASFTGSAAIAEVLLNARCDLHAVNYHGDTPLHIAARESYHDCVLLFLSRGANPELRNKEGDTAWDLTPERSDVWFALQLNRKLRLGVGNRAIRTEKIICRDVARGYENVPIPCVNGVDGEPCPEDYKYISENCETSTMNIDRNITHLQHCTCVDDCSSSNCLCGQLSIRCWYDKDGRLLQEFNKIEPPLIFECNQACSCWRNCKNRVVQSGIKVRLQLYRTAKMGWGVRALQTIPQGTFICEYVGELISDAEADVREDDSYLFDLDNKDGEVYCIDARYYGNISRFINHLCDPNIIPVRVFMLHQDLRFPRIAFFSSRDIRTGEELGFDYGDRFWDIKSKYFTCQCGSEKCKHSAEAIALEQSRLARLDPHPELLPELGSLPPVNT

SMILES	Potency	activity, negative = inhibition
c1ccc(C[n+]2c(-c3ccccc3)csc2Nc2ccccc2)cc1	active: 11.2 µM	–
CCc1nn2cc(C(=O)c3cc(C)ccc3O)cnc2c1-c1ccc(F)cc1	active: 44.7 µM	–
CCCCOc1ccc(-c2csc(N)n2)cc1[N+](=O)[O-]	active: 8.91 µM	–
Cc1ccc(C(=O)NCCn2cc(SCC(=O)Nc3nnc(C)s3)c3ccccc32)cc1	active: 50.1 µM	–
O=C(Nc1cccc(-c2nc3ccccc3[nH]2)c1)c1ccco1	inconclusive: 50.1 µM [inhibitor, partial curve]	–
Cc1ccc(C(=O)CSc2nnc(CNc3ccc(C)cc3C)n2Cc2ccco2)cc1	inconclusive: 3.55 µM [inhibitor, partial curve, poor fit]	–
O=C(Nc1ccc(N2CCOCC2)cc1N1CCOCC1)c1ccco1	inconclusive: 31.6 µM [inhibitor, single point]	–
COc1cccc(C(=O)Nc2ccc(NC(=O)C3CC3)nc2)c1	active: 39.8 µM	–
COc1ccc(Nc2cc3n(c(=O)n2)CCc2cc(OC)c(OC)cc2-3)cc1	–	inactive: -30.6% [at 2.33 µM]
O=C1C(Nc2ccccc2)=C/C(=N/S(=O)(=O)c2cccs2)c2ccccc21	active: 8.91 µM	–
COc1ccc(N(C)C(=O)c2cn(C)c(=O)c3cc(OC)c(OC)cc23)cc1	inactive	–
COC(=O)C1(C)NC(c2ccco2)C2C(=O)N(c3ccc(F)cc3)C(=O)C21 (stereo not given)	–	inactive: 17.4% [at 102 µM]
Cc1ccc(Cn2c(CO)cnc2SCC(=O)Nc2ccc(C)c(Cl)c2)cc1	inconclusive: 11.2 µM [inhibitor, partial curve, poor fit]	–
CCCC1CC(=O)OC1(C)C(=O)CSc1n[nH]c(-c2ccccc2)n1 (stereo not given)	active: 11.2 µM	–
Cc1nc(NC(=O)CSc2nnc(-c3ccccc3)c(-c3ccccc3)n2)c(Cl)cc1Cl	inconclusive: 7.94 µM [inhibitor, partial curve, poor fit]	–
O=C1CSC2(C(=O)N(Cc3cccc(F)c3)c3ccccc32)N1c1cccc(C(F)(F)F)c1 (stereo not given)	inconclusive: 6.31 µM [inhibitor, partial curve, poor fit]	–
Cc1oc(-c2ccc(Cl)cc2)nc1CS(=O)CC(=O)NCc1ccccn1 (stereo not given)	–	inactive: 16.7% [at 102 µM]
O=C(NCCc1ccc(F)cc1)Nc1ccc([N+](=O)[O-])cc1	inconclusive: 15.8 µM [inhibitor, partial curve, poor fit]	–
COCCN(Cc1ccc(F)cc1)C(=O)c1cc2ccccc2oc1=O	–	inactive: 24.9%
COc1ccc(NC(=S)N/N=C2\CC(C)(C)Oc3ccc(O)cc32)cc1	inconclusive: 79.4 µM [inhibitor, single point]	–
